Data: the RNAGym collection of RNA variant scans (doi:10.7554/elife.90254)
The source gives no read counts; variants with many changes may rest on few reads.

B1: LINE1-mini (parent)
chain: GGCAGAGCUCAACACAGCGUGGCAAAGUGGCUGUGGCUAGACUGCC

Variants of: B1
Assay: self-cleavage, relative activity (ratio to wild type); higher = more cleavage; in vitro, sequencing; the parent is a self-cleaving ribozyme

| Variant | self-cleavage |
| --- | --- |
| C13U G19U U38A | 0.07 |
| A6U G21U A25U | 0.79 |
| A4G G7C G29U | 0.16 |
| A12G C18U A24C A26G G35U C46A | 0.03 |
| U9A C42U C45U | 0.22 |
| A6C U9G G40C | 0.1 |
| G1C A12C A25C U28C G44U | 0.01 |
| C13A A14U U34C | 0.06 |
| G7A G29C G30A A41G | 0.04 |
| G1U G5A A39G C42G | 0.02 |
| C13U G21A C45A | 0.37 |
| G7U G27A G40A | 0.12 |
| G27A G33A G35U | 0.07 |
| G2A G7A C8A U9A C23U G27A | 0.18 |
| A6C C8G U9A A11G G21U | 0.01 |
| C10G A26G G27A | 0.03 |
| A6U A24U G27A | 0.54 |
| C8G G35C C45G | 0.06 |
| A14G G19A A25C G33A A39U | 0.13 |
| C8U C10U A14C G17U G19A U28A | 0.09 |
| A4C G21U C46U | 0.05 |
| C3U G7C C8G C23A G36U | 0.08 |
| G27C C31U G40U A41U | 0.01 |
| C8G A14G G40U A41U | 0.02 |

| Variant | self-cleavage |
| --- | --- |
| U20G G21A A39G | 0.14 |
| A11G U28C U38G C46A | 0 |
| G5C C31G U34C | 0.03 |
| G1A U9A A11U G17U A26U G40A | 0.01 |
| C8U A12U C23U G44U | 0.12 |
| A12C A14G G27U U28A A39G G40U | 0 |
| C15U C23A C46A | 2.44 |
| C10U C13A A14U C31A | 0.21 |
| G2A C3A A24C U28A C37U A41G C42U | 0.07 |
| C10A A16C A26U U32G | 0.01 |
| A6U C18A G27A G30C | 0.39 |
| A16U G19U G27U G36A | 0.14 |
| G17A A24G G33C | 0.02 |
| A6C G7U A11G | 0 |
| G21C C31A U32G | 0.1 |
| C8U A11C C23A G29A G36A | 0.01 |
| A14U C15U G19A U28G G33C | 0.01 |
| G5C A6U G7A C10U C18A G29A G30A U38A | 0.04 |
| C8G A25U U28A U34G C37U C45A | 0.01 |
| U9C G27C U38G | 0.12 |
| A12G C18U U20C C23G | 0.01 |
| C8A A16U C23U | 0.12 |
| U9C A14U C23G | 0.01 |
| C8G C15U A16G G35U C37U G44A | 0 |

| Variant | self-cleavage |
| --- | --- |
| G19U C31G U32C C45G | 0.05 |
| A6G A16U C42U | 0.09 |
| G2U A41G C45U | 0.03 |
| G5C C15A G27A G36C | 0.06 |
| G7U C15U U43C | 0.09 |
| C13A G33U C46A | 0.01 |
| U9G G21C U43A C46A | 0.01 |
| A12G A16U C18U G40U | 0.01 |
| U9C C10G C13A C15A C18U | 0.03 |
| C3G G29A G36A | 0.28 |
| C10G A11C G21C | 0.02 |
| G2A C18G C46A | 0.22 |
| G2U G7U C15G G35U | 0.3 |
| G5U C8G G30U U34C G36C C46G | 0.02 |
| C13A C15G U32C G36U | 0.05 |
| A6C G7A A25C | 0.18 |
| C10A A16U G21U C37A | 0.06 |
| G1U U38A G40A | 0.05 |
| G7C G17U C18G A24C C42A U43G | 0.03 |
| C3A C15U G21A U32C G36U G40C A41U | 0.05 |
| G5A C8U C42U | 0.41 |
| A6G U9A C10G C13U A16U G29C C37G | 0.01 |
| G5U G21U G29C A39G | 0.02 |
| C13A C31G C42G | 0.1 |

| Variant | self-cleavage |
| --- | --- |
| A16U U28G A39C G44C | 0.03 |
| A12G C13A C15G | 0.02 |
| C10A A12C A39G | 0.04 |
| A6G G22C U28C G29U | 0.04 |
| G5U C10A A26G | 0.03 |
| U9C G27C C42U C45G | 0 |
| U9A G30U A39G A41U C42A C46A | 0.09 |
| A14C C15A G29U C46A | 0.3 |
| G5C U9G C37U | 0.05 |
| C3U G7U C31A A41C C46G | 0.01 |
| C3A U9G G21A | 0.08 |
| A14G U20A G21C | 0.45 |
| G1A G2A G35U | 0.23 |
| A16U C23G A24U G35U A41C | 0.01 |
| G21U C31A G36A A41U | 0.31 |
| A4U U9G A16C C18A A26G U34A U38A | 0.13 |
| C8U G17A A24C | 0.42 |
| C3U C10A C15U U20C G36U C37U | 0.01 |
| A25G G30U G35A G36A | 0.02 |
| C18U G33U A39U | 0.08 |
| C13U U28G U38A A39G | 0.07 |
| G2U U9A C18A A26U A41G | 0 |
| C3A A16G C23U C37U G40C C45U | 0.03 |
| G2A G27C G36U | 0.16 |

| Variant | self-cleavage |
| --- | --- |
| C3G C8G C23G A41C | 0.15 |
| C3U G5U C10A C45G | 0.02 |
| G1U G22C C42U | 0.07 |
| G27U U32G A41C | 0.03 |
| G2U G7U C8A | 0.05 |
| G19A C37A C45G | 0.02 |
| C3U U28G G44U | 0.13 |
| A4U C42U G44U | 0.05 |
| C15G A16G C37U U38G C45U | 0.01 |
| A4U C23U G36U U38G | 0.02 |
| C3A C8G A12G C15U C18A U38A C42A C46A | 0.03 |
| G2U G5C C10U A11U C18U | 0.01 |
| G27U C31G U38G A41G | 0.02 |
| G7U C10G G44U | 0.02 |
| C18U A26U G35A | 0.03 |
| G7C U9G C10G C23U G30U C46U | 0.02 |
| C3A A11G A25U G36U | 0 |
| G2A A16G G19C U20A A25C G40U | 0.03 |
| A16U G29U G30U G36C | 0.02 |
| A4U G19U C23U U43C | 0.04 |
| G5A C18G A39U | 0.08 |
| C18A G29C C31G C37G A39G | 0.01 |
| G1U A4G G29A C46G | 0.12 |
| G2C C3G A6U U9A A14U U32G A39U | 1.45 |

| Variant | self-cleavage |
| --- | --- |
| C3U A12U G36C C46A | 0.05 |
| G35A A39U U43C | 0.07 |
| U9C C13G G19U | 0.03 |
| A16C G21U A41U | 0.05 |
| A6C A24C C31G G33C A41U C45U | 0.01 |
| A12C G17A G19C G22A G44A C45A | 0.01 |
| G7A G35A U38C C45G | 1.27 |
| G21U C31A U32C C42A | 0.08 |
| A12U G22A A39C C46U | 0.02 |
| G19U U20A U43G | 0.03 |
| A4C A11G G22A A25C G40C G44A | 0 |
| U9G G27A C31U C37A | 0.06 |
| A4U G5C C10U A11U G29C | 0.02 |
| G5A G21A U28C G29U G35U C37G U38G | 0.01 |
| G17A A25C G30C A39G | 0.01 |
| A11G A14G C23U U28C C46G | 0.03 |
| C10A G33U G36U | 0 |
| A25C G36A C37U | 0.01 |
| C13G G30U C42A G44U | 0.14 |
| U9C C13G C42G C45A | 0.01 |
| C18U C23U G36A | 0.11 |
| A14C A16U G22U U32C C37G U43A | 0.02 |
| G17A A25C C37U C46A | 0.05 |
| G2C C8G U20A U32A | 0.01 |

| Variant | self-cleavage |
| --- | --- |
| A14G C15G A24C G40U | 0 |
| G2U C23A U34G A39U | 0.03 |
| C3G A6C A24G A39G | 0.04 |
| A4C A12U A24C U28A | 0.05 |
| C3G G5A G36U | 0.18 |
| U9G U38G G40U | 0.01 |
| G2U G7A U38A | 0.1 |
| G30A C37A G40C | 0.26 |
| A26G C42U G44U | 0.12 |
| C23U G27C U28A | 0.33 |
| G1C U28G G33C U38C | 0.02 |
| G17C A26U U28A G35U | 0.04 |
| G7C G17U C18U G19C C37A G44A | 0.02 |
| G2U A14U G21U U34G | 0.06 |
| G17A A39G A41C | 0 |
| A11U G27U G40C A41U | 0 |
| G1A G7U A24U G33U | 0.88 |
| C10A U34G G36U C46A | 0.01 |
| A4G G27C G36C | 0.08 |
| G1A C10A U34A | 0.14 |
| C3G G7U G44U | 0.08 |
| C13G A16C C23G | 0.01 |
| G2A U9A G35A G36A G44U | 0.42 |
